Measurements published in PubChem BioAssay AID588795 (National Center for Advancing Translational Sciences (NCATS), 2011).
The campaign covered roughly 390,000 compounds. About 1,400 (0.36%) were called active. The inconclusive results got no clear call from the source; some entries with a clear call stand among them for comparison. Calls follow the shape of the dose curve; as a rule, active = well fitted inhibition curve with a large enough effect; inconclusive = small, poorly fitted or top-dose-only effect; inactive = no such curve, though single readings can be large or run the other way. Where the call is inconclusive, the potency comes from a doubtful curve fit.
% is scaled to controls: 0 for no effect and ±100 for the full control effect; potency is read from the fitted curve at half-maximal effect; tags tell the direction and shape of the fitted curve.
Also: nearly all actives have a fitted effect of over 65% in size.

What follows are molecules tested against Flap endonuclease 1 (Homo sapiens) (UniProt P39748) (assay: qHTS Assay for the Inhibitors of Human Flap endonuclease 1 (FEN1).). Details: Recombinant FEN1 flap cleavage, fluorescence, 15 min; series mostly up to 114 µM; activity change, negative = inhibition: at the top concentration.
UniProt P39748, sequence (P39748 whole entry, looked up): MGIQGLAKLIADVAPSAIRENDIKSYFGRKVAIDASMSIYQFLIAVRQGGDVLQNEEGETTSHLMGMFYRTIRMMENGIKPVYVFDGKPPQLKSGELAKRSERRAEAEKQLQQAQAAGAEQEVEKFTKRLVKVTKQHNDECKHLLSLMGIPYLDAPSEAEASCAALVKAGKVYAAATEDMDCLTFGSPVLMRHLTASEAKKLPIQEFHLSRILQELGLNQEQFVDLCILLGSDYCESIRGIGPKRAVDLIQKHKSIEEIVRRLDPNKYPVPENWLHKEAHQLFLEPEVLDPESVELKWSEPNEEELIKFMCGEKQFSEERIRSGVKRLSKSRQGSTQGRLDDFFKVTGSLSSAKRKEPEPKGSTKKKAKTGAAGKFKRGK
Summary of the method: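 FEN1 at 10 nM preincubated with compounds 15 min at room temperature, then flap DNA substrate added at 50 nM final. Signal read at 0 and 15 min; concentration-response fitted with four-parameter Hill equation.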
With `COc1cccc(-c2nc(CS(=O)(=O)CC(=O)Nc3ccc(C)c(Cl)c3)c(C)o2)c1` the “activity change, negative = inhibition” value was inactive: 9.26%. `COc1ccccc1/C=C1/SC(=O)N(CCC(=O)Nc2ccc(S(=O)(=O)Nc3nccs3)cc2)C1=O` was tested, and the Potency was inconclusive: 89.1 µM [inhibitor, partial curve, poor fit]. In the case of `COc1cccc(-c2nc(CS(=O)(=O)CC(=O)NCCc3cc(OC)ccc3OC)c(C)o2)c1`, the Potency is reported as inconclusive: 79.4 µM [inhibitor, partial curve, poor fit]. `CCOC(=O)C1Nc2ccc(C(=O)O)cc2C2C=CCC12` (centres undefined) was tested, and the Potency was active: 20 µM. In the case of `Cc1cc(-c2csc(N)n2)c(C)n1C`, the Potency is reported as inconclusive: 89.1 µM [inhibitor, single point]. For `CCOC(=O)c1cnc2ccc(OCC)cc2c1NCCc1ccc(OC)c(OC)c1`, the Potency was inconclusive: 31.6 µM [inhibitor, partial curve, poor fit]. In the case of `COc1ccc(C(C)=O)cc1CSc1nc(NCc2ccccc2)c2ccccc2n1`, the Potency is reported as inconclusive: 2.51 µM [inhibitor, partial curve, poor fit]. In the case of `CC1CCN(C(=O)Nc2ccc3nc(-c4ccco4)c(-c4ccco4)nc3c2)CC1`, the Potency is reported as active: 15.8 µM. In the case of `O=C(CNC(=O)c1ccccc1O)N/N=C/c1cc(Br)ccc1OC(=O)/C=C/c1ccco1`, the Potency is reported as inconclusive: 56.2 µM [inhibitor, partial curve, poor fit]. For `Cc1ccc(/C=C/C(=O)Nc2nccs2)o1`, the “activity change, negative = inhibition” value was inactive: -2.04%. With `COc1cc(N=Nc2cccc(S(N)(=O)=O)c2)c2ccccc2c1N` the Potency was active: 44.7 µM. For `Clc1ccc2[nH]c3c(NCCCN4CCOCC4)ncnc3c2c1`, the Potency was inconclusive: 50.1 µM [inhibitor, partial curve]. For `COc1cc(C(=O)NC2CCN(C)CC2)ccc1Nc1ncc2c(n1)N(C1CCCC1)CCC(=O)N2C(C)C`, the “activity change, negative = inhibition” value was inactive: -14.4%. In the case of `O=C(Nc1ccc(S(=O)(=O)Nc2nccs2)cc1)c1ccc(=O)[nH]c1`, the “activity change, negative = inhibition” value is reported as inactive: -25.6%. For `CCN(CC)CCCNC(=S)N(CCO)Cc1cc2cc3c(cc2[nH]c1=O)OCCO3`, the Potency was inconclusive: 89.1 µM [inhibitor, partial curve, poor fit]. In the case of `COC(=O)c1ccc(C(=O)Nc2ccc3nc(-c4cccnc4)[nH]c3c2)cc1`, the “activity change, negative = inhibition” value is reported as inactive: -6.64%. In the case of `[S-]C(=Nc1ccc(Cl)cc1)N[n+]1ccccc1`, the “activity change, negative = inhibition” value is reported as inactive: -0.234%. `O=C1C(NS(=O)(=O)c2ccc(Br)cc2)=C(N2CCCCC2)C(=O)c2ccccc21` was tested, and the Potency was inconclusive: 31.6 µM [inhibitor, partial curve, poor fit]. With `COc1ccc(OC)c(/C=C2\S/C(=N/NC(=O)c3ccc4ccccc4c3)NC2=O)c1` the Potency was inconclusive: 89.1 µM [inhibitor, partial curve, poor fit]. With `O=C1CCC(=O)c2ccc3c4c(ccc1c24)CC3` the Potency was inconclusive: 79.4 µM [inhibitor, single point]. With `Cc1nc(NS(=O)(=O)c2ccc(Br)cc2)c2c3c(sc2n1)CCC3` the “activity change, negative = inhibition” value was inactive: 0.842%. In the case of `COc1ccccc1[C@@H]1C(c2ccc(F)cc2)=NN(c2ccccc2)[C@H]1C(=O)N1CCOC1=O`, the Potency is reported as inconclusive: 89.1 µM [inhibitor, partial curve, poor fit]. For `CCN(CC)S(=O)(=O)c1ccc2c(c1)N(CC(=O)NCCCN1CCN(c3cc(C)ccc3C)CC1)C(=O)CO2`, the “activity change, negative = inhibition” value was inactive: 5.76%. With `O=C(N/N=C/c1cccs1)c1c[nH]c2ccccc12` the Potency was inconclusive: 89.1 µM [inhibitor, partial curve, poor fit]. For `O=C(Nc1ccc(F)cc1F)Nc1sccc1-c1nc2ccccc2s1`, the Potency was inconclusive: 25.1 µM [inhibitor, partial curve, poor fit]. `CCN(CC)C(=O)Cn1c(=O)oc2ccccc21` was tested, and the “activity change, negative = inhibition” value was inactive: 20.9%. In the case of `O=C(N/N=C/c1ccc(Br)cc1)c1ccc(Br)o1`, the Potency is reported as inconclusive: 89.1 µM [inhibitor, partial curve, poor fit]. `COc1cccc(NC(=O)C2CCN(S(=O)(=O)c3c(C)noc3/C=C/c3cccs3)CC2)c1` was tested, and the “activity change, negative = inhibition” value was inactive: -16.1%. `Cc1nc2sc(C(c3ccco3)N3CCN(C(c4ccccc4)c4ccccc4)CC3)c(O)n2n1` (centres undefined) was tested, and the “activity change, negative = inhibition” value was inactive: 1.04%. `COc1cc2nc(NC3CCN(Cc4ccccc4)CC3)nc(N3CCCN(C)CC3)c2cc1OC` was tested, and the Potency was inconclusive: 35.5 µM [inhibitor, partial curve]. In the case of `CN1CCCC1CCNc1ccc2c(=O)c3ccccc3oc2c1` (centres undefined), the Potency is reported as inconclusive: 44.7 µM [inhibitor, partial curve]. `Cc1cc2ccccc2n1CCNC(=O)Cc1cccc2ccccc12` was tested, and the Potency was inconclusive: 50.1 µM [inhibitor, partial curve, poor fit]. `COc1cccc(CN2C(=O)[C@@H]3Cc4c([nH]c5ccccc45)C(C)(C)N3C2=O)c1` was tested, and the Potency was inconclusive: 44.7 µM [inhibitor, partial curve, poor fit]. For `O=C(Nc1cccnc1Cl)c1ccc(=O)oc1`, the Potency was active: 20 µM. With `O=c1ccc2cc(O)c(O)cc2o1` the “activity change, negative = inhibition” value was inactive: -10.4%. In the case of `CSCc1c(C(=O)Nc2ccc3c(c2)OCO3)oc2ccccc12`, the Potency is reported as inconclusive: 89.1 µM [inhibitor, partial curve, poor fit]. In the case of `Fc1cccc(NC(=S)NNc2ccccc2)c1`, the “activity change, negative = inhibition” value is reported as inactive: -15.3%. In the case of `CCc1ccc(NC(=O)Cn2nnc(C(=O)NCCc3ccccc3)c2N)cc1`, the “activity change, negative = inhibition” value is reported as inactive: 14.7%. For `Cc1onc(-c2ccccc2)c1C(=O)N1CCOC12CCN(c1cccc(F)n1)CC2`, the Potency was inconclusive: 79.4 µM [inhibitor, partial curve, poor fit]. With `CCOc1ccc2c(C)nc(NC3=NC(C)(C)C=C(C)N3)nc2c1` the Potency was active: 44.7 µM. `O=c1c(NCCc2ccc(Cl)cc2)nccn1-c1ccccc1` was tested, and the “activity change, negative = inhibition” value was inactive: -2.08%. `CCOC(=O)c1c2ccc(OCC(=O)NN)cc2n2ccccc12` was tested, and the Potency was inconclusive: 79.4 µM [inhibitor, single point]. For `COc1cc2nc(N3CCCN(C)CC3)nc(N(C)C)c2cc1OC`, the Potency was inconclusive: 28.2 µM [inhibitor, full curve]. In the case of `CCOC(=O)C1=NNC(C(=O)c2ccccc2)C1c1ccc(Cl)cc1` (centres undefined), the Potency is reported as inconclusive: 79.4 µM [inhibitor, partial curve, poor fit]. For `Cc1ccc(C)c(N2CCN(S(=O)(=O)c3ccc(F)c(C(=O)Nc4ccc(Cl)cc4Cl)c3)CC2)c1`, the “activity change, negative = inhibition” value was inactive: -0.384%. `O=C(O)CSc1nc2sc3c(c2c(=O)n1Cc1ccccc1)CCCCC3` was tested, and the “activity change, negative = inhibition” value was inactive: -6.26%. `Cn1c(=O)[nH]c2nnc(-c3ccc(Cl)c(Cl)c3)nc2c1=O` was tested, and the Potency was inconclusive: 100 µM [inhibitor, single point]. For `COc1ccc(NC(=O)c2ccco2)cc1NC(=O)COc1cc(C)ccc1C(C)C`, the Potency was inconclusive: 89.1 µM [inhibitor, single point]. In the case of `CSc1nnc(Cn2c(=O)sc3ccccc32)n1-c1ccccc1C`, the Potency is reported as inconclusive: 79.4 µM [inhibitor, single point]. In the case of `COc1cc(NC(=O)CCCc2nnc3n(C)c(=O)c4sccc4n23)cc(OC)c1OC`, the Potency is reported as inconclusive: 22.4 µM [inhibitor, single point]. In the case of `O=C1[C@H](Cc2ccccc2)NC/C=C\C[C@H](c2ccc(Cl)cc2)N1Cc1ccc(Cl)cc1`, the Potency is reported as inconclusive: 50.1 µM [inhibitor, partial curve, poor fit]. For `CCc1ccc(NS(=O)(=O)c2ccc3[nH]c4c(c3c2)CCCCCC4)cc1`, the Potency was inconclusive: 56.2 µM [inhibitor, partial curve, poor fit]. For `Oc1c(CN2CCCCC2)cc(COCc2ccccc2)c2cccnc12`, the Potency was inconclusive: 89.1 µM [inhibitor, partial curve, poor fit]. `CC1CC=CC2C1C(=O)N(Cc1ccccc1)C2c1ccc2ccccc2c1` (centres undefined) was tested, and the “activity change, negative = inhibition” value was inactive: -25.4%. `Cc1sc(NC(=O)Nc2ccccc2)c(C(N)=O)c1C` was tested, and the “activity change, negative = inhibition” value was inactive: 13.7%. `CCCN1C(=O)C(Cc2nc3ccccc3c(=O)n2CC)c2cc(Br)ccc21` (centres undefined) was tested, and the “activity change, negative = inhibition” value was inactive: 7.07%. With `CCC(C)[C@H](N)c1nnc(SCc2ccc(Cl)c(Cl)c2)o1` (some centres undefined) the “activity change, negative = inhibition” value was inactive: 1.55%. In the case of `CC1=C(C(=O)Nc2ccccc2)C(c2ccc(Cl)cc2)n2c(s/c(=C/c3cccc(OCC(=O)O)c3)c2=O)=N1` (centres undefined), the Potency is reported as inconclusive: 89.1 µM [inhibitor, single point]. In the case of `CCOc1ccc(S(=O)(=O)N2CCN(c3nc(-c4ccccc4)nc4ccccc34)CC2)cc1`, the “activity change, negative = inhibition” value is reported as inactive: -7.28%. `Nc1cccc(-c2cn(-c3cc4cc(C#CC5(O)CCCCC5)ccc4oc3=O)nn2)c1` was tested, and the Potency was inconclusive: 89.1 µM [inhibitor, partial curve, poor fit]. In the case of `C=CCNc1ncnc2c1[nH]c1ccc(Cl)cc12`, the Potency is reported as inconclusive: 44.7 µM [inhibitor, partial curve, poor fit]. `O=C(CCCN1C(=O)/C(=C/c2ccccc2Cl)SC1=S)Nc1cccnc1` was tested, and the Potency was inconclusive: 50.1 µM [inhibitor, partial curve, poor fit]. With `NC(=O)CSc1nc2scc(-c3ccco3)c2c(=O)n1-c1ccccc1` the Potency was inconclusive: 79.4 µM [inhibitor, partial curve]. `COc1ccc2cc(C(C)c3nc4ccccc4c(=O)n3N)ccc2c1` (centres undefined) was tested, and the “activity change, negative = inhibition” value was inactive: -4.17%. In the case of `C/C(=N\N=C(/N)SC1CC(=O)N(c2ccc(Cl)c(Cl)c2)C1=O)c1cccs1` (centres undefined), the Potency is reported as inconclusive: 79.4 µM [inhibitor, single point]. In the case of `Cc1cccc(NC(=O)C2CCN(c3ncnc4c3nc3n4CCCCC3)CC2)n1`, the “activity change, negative = inhibition” value is reported as inactive: -11.8%. `N#Cc1c(SCC(=O)Nc2nc3ccccc3s2)sc2c(O)cc(=O)[nH]c12` was tested, and the Potency was active: 17.8 µM. With `O=C(CN1C(=O)/C(=C/c2ccco2)SC1=S)Nc1ccc(O)c(C(=O)O)c1` the Potency was inconclusive: 2.82 µM [inhibitor, partial curve, poor fit]. For `C[C@H](NC(=O)c1[nH]cnc1C(=O)Nc1ccc(CNC(=O)OC(C)(C)C)cc1)C(=O)OC(C)(C)C`, the Potency was inconclusive: 25.1 µM [inhibitor, partial curve, poor fit].
